PubChem BioAssay AID485344 (National Center for Advancing Translational Sciences (NCATS), 2010)
About 6,900 (2%) of roughly 340,000 compounds were called active. Cut-off read from the data, not from the text of the source: active = inhibition above about 30%; inactive = below that, where a call was filed. The list shows a part of the results, in another mix than the full data. Entries without a call were filed so in the source.

Target: D(2) dopamine receptor (Homo sapiens) (UniProt P14416)
Test: HTS Assay for Allosteric Antagonists of the Human D2 Dopamine Receptor: Primary Screen for Antagonists; note: 0% is about no effect
Conditions: HEK293 TREx D2 cells, calcium flux, dopamine EC80; at 10 µM; stronger effect = higher value
Method in brief: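 Compounds are added to dye-loaded, induced HEK293 T-REx cells coupled to calcium release via D2; after a 3 min kinetic read an EC80 dopamine stimulus is given and fluorescence is recorded for 3 more min.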

UniProt P14416, sequence (P14416 whole entry, looked up): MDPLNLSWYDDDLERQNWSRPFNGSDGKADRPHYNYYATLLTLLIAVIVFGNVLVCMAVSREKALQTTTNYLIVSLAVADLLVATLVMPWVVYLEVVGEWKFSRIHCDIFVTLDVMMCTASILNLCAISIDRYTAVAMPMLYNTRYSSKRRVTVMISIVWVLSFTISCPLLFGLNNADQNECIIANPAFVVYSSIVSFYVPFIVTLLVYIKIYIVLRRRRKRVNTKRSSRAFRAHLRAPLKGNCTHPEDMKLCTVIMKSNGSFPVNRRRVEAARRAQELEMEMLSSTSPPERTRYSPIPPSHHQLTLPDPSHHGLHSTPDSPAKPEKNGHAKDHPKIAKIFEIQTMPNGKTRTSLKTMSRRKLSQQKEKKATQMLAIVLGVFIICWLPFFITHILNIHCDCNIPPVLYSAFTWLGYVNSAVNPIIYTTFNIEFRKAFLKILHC

Structure (SMILES)	inhibition
Cc1ccc(CN(Cc2cccn2-c2nnc(N3CCCC3=O)s2)C(=O)Nc2ccc(F)cc2)cc1	-4.37%
CCOc1ccc(NC(=O)c2sc3nc4c(cc3c2N)CN(Cc2ccccc2)CC4)cc1	4.13%
Cc1ccc(-n2nc(C(=O)Nc3ccc(Br)cc3C)c(=O)n(C)c2=O)cc1	-18.9%
COc1ccccc1CNC(=O)CSCc1nc(-c2ccc(OC)c(OC)c2)oc1C	-6.42%
COC(=O)c1ccc(NC(=O)C(=O)NCCc2csc(-c3ccc(C(F)(F)F)cc3)n2)cc1	-10.5%
CCCCNC(=O)c1sc(=S)n2c1[nH]c(=O)c1ccccc12	active: 32.7%
COc1ccc(NC(=O)CN2CCN(CC(=O)Nc3ccccc3F)CC2)cc1OC	6.41%
Cc1oc(-c2ccccc2Cl)nc1CS(=O)CC(=O)NCc1ccccc1Cl (stereo not given)	11.5%
O=S(=O)(c1ccc(F)cc1)N(Cc1nc(-c2ccccc2)no1)C1CCCCC1	-16.1%
CCOc1ccccc1CNC(=O)CCn1ccc2cc(S(=O)(=O)N3CCCCC3)ccc21	-3.92%
CCc1ccc(-n2c(=O)c3c(C)c(C(=O)N(C)C)sc3n(Cc3ccccc3F)c2=O)cc1	-23.5%
Cn1c(=O)c2sccc2n2c(CCCC(=O)Nc3ccc(Oc4ccc(Cl)cc4)cc3)nnc12	-12.3%
CC(=O)N1c2c(cc(Br)cc2S(=O)(=O)N2CCN(c3ccccc3)CC2)CC1C (stereo not given)	8.35%
Cc1ccc(-c2cc3c(N4CCN(c5cc(C)ccc5C)CC4)nccn3n2)cc1	-16.3%
CC(C)CCOc1ccccc1Cn1c(=O)sc2ccccc21	8.83%
Cc1ccccc1NS(=O)(=O)c1ccc2[nH]c3c(c2c1)CCCCC3	-3.03%
CCOC(=O)c1cc(-c2ccccc2)n(CCC(=O)Nc2nc3c(C)cccc3s2)c1C	9.98%
Cc1ccc(Cl)cc1N1CCN(C(=O)c2ccc3nc(N4CCC(C)CC4)sc3c2)CC1	5.17%
COc1ccc(/C=C/C(=O)Nc2ccc(Cl)c(Cl)c2)cc1	3.54%
Cc1cc(-c2ccc(C)c(S(=O)(=O)Nc3cccc(C#N)c3)c2)on1	-15.5%

Structure (SMILES)	inhibition
CCCCn1c(NC(=O)c2ccccc2)c(C#N)c2nc3ccccc3nc21	active: 37.8%
CCOc1ccc(CCNC(=O)c2c(C)oc3ncn(C)c(=O)c23)cc1	1.04%
O=C(COc1ccc(F)cc1)NCCc1nc2ccccc2[nH]1	-14.1%
O=c1c2sccc2n(Cc2cc(=O)n3ccccc3n2)c(=O)n1-c1cccc(C(F)(F)F)c1	-12.5%
Cc1ccc2oc(-c3cccc(NC(=O)c4sc5c([N+](=O)[O-])cccc5c4Cl)c3)nc2c1	6.78%
Cc1cnc(=O)[nH]c1SCC(=O)Nc1nc2ccccc2s1	0.622%
Cc1ccc(-c2nnc(SCC(=O)NCc3ccccc3)nc2-c2ccc(C)cc2)cc1	25.4%
Cc1ccccc1-c1cc(C(=O)NCc2ccc3c(c2)OCO3)n(CC2CC(c3cccnc3)=NO2)n1 (stereo not given)	active: 82.9%
CNS(=O)(=O)c1cc(-c2nnc(Nc3cc(C)ccc3C)c3ccccc23)ccc1C	-0.897%
Cc1cc2c(cc3c(SCC(=O)Nc4cccc(Cl)c4C)nnc(C)n32)o1	1.31%
CCc1ccc(C(=O)NC(Cc2c[nH]c3ccccc23)C(=O)OCC(=O)c2ccc(Br)cc2)cc1 (stereo not given)	0.0914%
CCOC(=O)c1cnc2ccccc2c1Nc1cccc(OC)c1	-2.58%
CCN1CCN(C(=O)c2ccc3c(c2)N(Cc2ccccc2F)C(=O)c2ccccc2S3=O)CC1 (stereo not given)	-18.2%
Cc1ccc(-n2c3c(cc(C(=O)Nc4cccc(Cl)c4)c2=O)C(=O)CC(C)(C)C3)cc1	-7.78%
Clc1ccc(CN2CCN(c3ncccn3)CC2)c(Cl)c1	active: 89.8%
Cc1ccc(Cl)cc1N1CCN(C(=O)CCCCCn2c(=O)[nH]c3ccccc3c2=O)CC1	-15.7%
COc1ccccc1N1CCN(Cc2ccc(OC)c3ccccc23)CC1	active: 72.3%
CCc1ccc(NC(=O)C2CCCN(S(=O)(=O)c3c(C)noc3/C=C/N(C)C)C2)cc1 (stereo not given)	11.7%
CCOc1ccccc1-c1nc(SCC(=O)c2ccc(OC)c(Br)c2)n[nH]1	-0.221%
CC(C)OC(=O)c1cccnc1SCC(=O)Nc1ccc(C(F)(F)F)cc1Cl	26.9%

Structure (SMILES)	inhibition
CCOC(=O)c1c(-c2ccccc2)csc1NC(=O)c1cc(-c2ccc(C)c(F)c2)on1	16.6%
Cc1cccc(C(=O)Nc2ccc(OCc3cc(=O)n4ccsc4n3)cc2)c1	11.1%
O=C(NC1CCCCCC1)C1c2ccccc2C(=O)N1Cc1ccccc1Cl (stereo not given)	15.9%
CCN(CC)S(=O)(=O)c1ccc2c(c1)N(CC(=O)N1CCN(c3ccc(Cl)cc3)CC1)C(=O)CO2	-5.02%
O=C(O)[C@@H]1[C@H]2C[C@H]3c4[nH]c5ccccc5c4CCN3C[C@@H]2CC[C@@H]1O	active: 68%
CCOc1ccc(NC(=O)CN(C)c2nnnn2-c2ccccc2)cc1OCC	active: 35.1%
CC(=O)N/C(=C/c1ccc(Cl)cc1)C(=O)NCCc1c[nH]c2ccccc12	active: 31%
COC(=O)CSc1ncc2c(n1)-c1ccccc1N(Cc1cccc(F)c1)S2(=O)=O	0.952%
CCN1C(=O)c2ccccc2S(=O)(=O)c2ccc(C(=O)NCc3ccccc3Cl)cc21	-8.55%
COc1cccc(CNC(=O)c2c(C)oc3nc(C)nc(N4CCOCC4)c23)c1	6.12%
CCOC(=O)C1CCN(C(=O)CSc2n[nH]c(-c3ccc(F)cc3)n2)CC1	-21.8%
O=C(Cn1c(=O)oc2cc(S(=O)(=O)N3CCCC3)ccc21)NCc1ccc(F)cc1	-2.49%
CCc1cccc(C)c1NS(=O)(=O)c1c(C)nc2sccn2c1=O	-1.93%
Cc1cc(C(=O)C(=O)Nc2nnc(C(C)C)s2)c(C)n1-c1ccccc1	1.33%
CC(=O)c1cccc(NC(=O)C(C)n2c(=O)cc(-c3ccccc3)c3c(C)nn(C)c32)c1 (stereo not given)	12.1%
CCOc1cccc(OCCCn2c(-c3ccc(Br)cc3)nc3ccccc3c2=O)c1	16.6%
COc1cccc(CNC(=O)c2ccc(NC(=O)N3CCCCc4ccccc43)cc2)c1OC	0.323%
CCOc1ccc(-c2cc(-c3nc(-c4ccc(C)cc4)no3)[nH]n2)cc1	-14.9%
CCc1cccc(C)c1NC(=O)Cn1c(=O)n(-c2cccc(C)c2)c(=O)c2c1c1cc(C)ccc1n2C	4.2%
COc1ccc(Cl)cc1N(C)C(=O)Cc1noc2ccc(C)cc12	-4.15%
